# Source: the BET-seq Pho4 binding data (Le et al. 2018)
# The list shows a part of the results. Values were computed here from the reads of four pooled replicates and scatter widely.
# Molecular target: T1, Pho4 (S. cerevisiae) (UniProt P07270)
# T1 sequence: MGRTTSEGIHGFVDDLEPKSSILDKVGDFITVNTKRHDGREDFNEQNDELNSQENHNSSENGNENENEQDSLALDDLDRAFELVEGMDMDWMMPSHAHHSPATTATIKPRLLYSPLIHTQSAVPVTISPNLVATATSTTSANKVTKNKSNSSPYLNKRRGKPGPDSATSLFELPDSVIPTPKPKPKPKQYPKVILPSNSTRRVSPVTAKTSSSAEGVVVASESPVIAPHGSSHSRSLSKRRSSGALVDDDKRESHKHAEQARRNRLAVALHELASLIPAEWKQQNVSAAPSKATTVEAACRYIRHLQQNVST
# Assay: relative binding free energy (BET-seq); higher = weaker binding
# Conditions: reference: library average
row,Sequence,relative binding free energy
1,CTTGTCACGTGGCTTG,0.06 kcal/mol
2,GGTCTCACGTGATGGC,0.39 kcal/mol
3,GGCGACACGTGGAGTT,0.18 kcal/mol
4,GTTCACACGTGGAAGG,0.22 kcal/mol
5,AAAGTCACGTGTCTAT,0.21 kcal/mol
6,ATGAGCACGTGGGAGT,-0.2 kcal/mol
7,TATAGCACGTGCTGGC,-0.03 kcal/mol
8,TGGTACACGTGTAGCG,0.18 kcal/mol
9,GGTTGCACGTGGCTTG,0.02 kcal/mol
10,ATTTTCACGTGTATCT,0.14 kcal/mol
11,TGTTTCACGTGCTGGC,0.13 kcal/mol
12,TAATTCACGTGTTTAC,0.42 kcal/mol
13,TAGGTCACGTGGCTAT,-0.1 kcal/mol
14,GGTCGCACGTGGGGCT,-0.15 kcal/mol
15,GATTTCACGTGGTTTG,0.34 kcal/mol
16,GTAGGCACGTGTTAAG,-0.1 kcal/mol
17,TTCCGCACGTGGCGGG,-0.14 kcal/mol
18,TTGGTCACGTGTACTT,0.16 kcal/mol
19,TGTAGCACGTGATGAA,0.09 kcal/mol
20,TCTAACACGTGTGGGG,0.1 kcal/mol
21,TCTGGCACGTGGCGTG,-0.21 kcal/mol
22,GATGTCACGTGATACT,0.46 kcal/mol
23,AATGGCACGTGAGTTG,0.16 kcal/mol
24,CTGGGCACGTGTGGAA,-0.18 kcal/mol
25,ACGAGCACGTGGGGAT,-0.04 kcal/mol

row,Sequence,relative binding free energy
1,AATGACACGTGTGTTA,0.03 kcal/mol
2,AAAGGCACGTGTGTGA,-0.23 kcal/mol
3,TGCGTCACGTGTTGCG,-0.1 kcal/mol
4,ACTGGCACGTGGTGAT,-0.06 kcal/mol
5,AGGAACACGTGTATGG,0.05 kcal/mol
6,ACATTCACGTGGTTTG,0.22 kcal/mol
7,ATTTGCACGTGGGCTG,-0.29 kcal/mol
8,CAGAGCACGTGGGGTG,-0.25 kcal/mol
9,AATTCCACGTGGTTGT,-0.02 kcal/mol
10,CAGGTCACGTGAGGTC,0.39 kcal/mol
11,GGGTGCACGTGTTGGT,0.06 kcal/mol
12,TGGGCCACGTGTGGAA,-0.05 kcal/mol
13,AGACGCACGTGTGTGA,0.05 kcal/mol
14,AAGTTCACGTGGTCGG,0.23 kcal/mol
15,TGGGTCACGTGGTAGC,0.11 kcal/mol
16,TGGGTCACGTGATAGT,0.12 kcal/mol
17,GGCATCACGTGTAGTT,0.2 kcal/mol
18,TAGATCACGTGAAGAT,0.4 kcal/mol
19,GATTTCACGTGTTAGG,0.39 kcal/mol
20,GGTGCCACGTGATTGA,0.14 kcal/mol
21,TCTTTCACGTGTGGGC,0.23 kcal/mol
22,TGTAACACGTGAGGTA,0.19 kcal/mol
23,CGCTTCACGTGCGGGT,0.15 kcal/mol
24,GTGTTCACGTGATTGA,0.49 kcal/mol
25,ATTTACACGTGGAGGT,0.01 kcal/mol

row,Sequence,relative binding free energy
1,GGAAGCACGTGCTTTG,-0.02 kcal/mol
2,GGTAACACGTGGGAGG,0 kcal/mol
3,GTTTTCACGTGTATAG,0.35 kcal/mol
4,GTCCTCACGTGGGGTA,0.2 kcal/mol
5,ATATTCACGTGTGAAG,0.24 kcal/mol
6,TGTGGCACGTGGTCGG,-0.21 kcal/mol
7,GGATGCACGTGATTGT,0.09 kcal/mol
8,AGCATCACGTGGGGGT,-0.01 kcal/mol
9,GCGGGCACGTGGGTAG,-0.29 kcal/mol
10,TATTTCACGTGAAAGG,0.33 kcal/mol
11,ATAGGCACGTGACTAG,0.02 kcal/mol
12,TAGTACACGTGTGAAT,0.16 kcal/mol
13,TGGTTCACGTGGAGAG,0.27 kcal/mol
14,AAGAGCACGTGTTAGT,-0.25 kcal/mol
15,ATTGTCACGTGATCGG,0.02 kcal/mol
16,TTCTGCACGTGAAGAG,0.4 kcal/mol
17,GGGTTCACGTGTATCG,0.21 kcal/mol
18,ATATGCACGTGGATGT,0.01 kcal/mol
19,ATGTGCACGTGAGGAG,0.02 kcal/mol
20,TGGGGCACGTGCTATC,-0.01 kcal/mol
21,TATAACACGTGGGTTA,-0.22 kcal/mol
22,ACTGGCACGTGTGTTT,-0.08 kcal/mol
23,GTGGCCACGTGGTTTG,-0.17 kcal/mol
24,TGGTTCACGTGCAATG,0.32 kcal/mol
25,ATGGACACGTGATTGG,0.05 kcal/mol

row,Sequence,relative binding free energy
1,TTGTTCACGTGGGCGC,0.17 kcal/mol
2,AAGAGCACGTGTCTGG,-0.14 kcal/mol
3,AGGATCACGTGCGGGT,0.12 kcal/mol
4,GGGGTCACGTGGGTGT,0.11 kcal/mol
5,GTTCGCACGTGGTACG,-0.09 kcal/mol
6,AAGCGCACGTGTGTGT,-0.05 kcal/mol
7,AGGTTCACGTGAGATG,0.57 kcal/mol
8,AAGGTCACGTGTTAAT,0.23 kcal/mol
9,GTAATCACGTGGGTGT,0.06 kcal/mol
10,CTTGGCACGTGAGTTC,0.15 kcal/mol
11,TTCATCACGTGTAGTT,0.22 kcal/mol
12,GTTCTCACGTGGGAGA,0.24 kcal/mol
13,TGGGGCACGTGGCGGG,-0.18 kcal/mol
14,GTGGTCACGTGCAGAT,0.09 kcal/mol
15,TATGGCACGTGTGCTG,0 kcal/mol
16,TCTTTCACGTGTATGG,0.2 kcal/mol
17,AGGATCACGTGCGGTT,0.27 kcal/mol
18,TTAGGCACGTGAGTTT,0.1 kcal/mol
19,AATTTCACGTGAGATT,0.32 kcal/mol
20,CTTATCACGTGGGGAG,0.06 kcal/mol
21,GAGTGCACGTGGGAGA,-0.08 kcal/mol
22,AAGATCACGTGCGGGG,0.14 kcal/mol
23,AGTTACACGTGTAGGT,0.12 kcal/mol
24,TGTTACACGTGTTCTA,0.08 kcal/mol
25,TGGCCCACGTGAGGTT,0.37 kcal/mol

row,Sequence,relative binding free energy
1,ATGAGCACGTGGTTAT,-0.12 kcal/mol
2,TGAGTCACGTGAGCTT,0.39 kcal/mol
3,AGTTTCACGTGCCGTT,0.21 kcal/mol
4,TCGAGCACGTGGGGAT,-0.12 kcal/mol
5,GAGGTCACGTGGTGTA,0.12 kcal/mol
6,GGAATCACGTGATTGT,0.28 kcal/mol
7,TCTCACACGTGGTGTT,0.06 kcal/mol
8,GGGTGCACGTGGAATC,0.06 kcal/mol
9,AGTTTCACGTGATGAT,0.29 kcal/mol
10,CGCGGCACGTGTGGTA,0.01 kcal/mol
11,GCCGGCACGTGGGAGG,-0.22 kcal/mol
12,ATGGTCACGTGAAGAA,0.42 kcal/mol
13,TTTGGCACGTGAAAAT,0.1 kcal/mol
14,TTATTCACGTGTCTGA,0.16 kcal/mol
15,GTTAGCACGTGAGTGA,0.11 kcal/mol
16,ATAGACACGTGTAGGT,0.12 kcal/mol
17,GTTCTCACGTGGGCAT,0.16 kcal/mol
18,ATCGTCACGTGAATGG,0.33 kcal/mol
19,TGGTGCACGTGATTCA,0.07 kcal/mol
20,AGTCACACGTGTATGT,0.03 kcal/mol
21,TTTGACACGTGTAGGT,0.1 kcal/mol
22,TGGGACACGTGATCGG,0.17 kcal/mol
23,GGGGGCACGTGGATTA,0.03 kcal/mol
24,TGAGTCACGTGTGGGC,0.16 kcal/mol
25,TAGGGCACGTGTTAGG,-0.16 kcal/mol

row,Sequence,relative binding free energy
1,TGGTGCACGTGAACGT,0.3 kcal/mol
2,TAGGTCACGTGTTCCT,0.08 kcal/mol
3,ATGGGCACGTGGTAAG,-0.09 kcal/mol
4,ATGAGCACGTGGTTCG,-0.11 kcal/mol
5,GGGTCCACGTGTGCGG,0 kcal/mol
6,CGAAGCACGTGAAGGG,0.22 kcal/mol
7,ATTTACACGTGGGTGA,0.08 kcal/mol
8,GCATACACGTGTTGTT,0.25 kcal/mol
9,GTGTCCACGTGGGTAA,-0.12 kcal/mol
10,TAGTGCACGTGGCTTA,-0.18 kcal/mol
11,TGCGTCACGTGTGACG,0.15 kcal/mol
12,GGTTCCACGTGAAGTT,0.41 kcal/mol
13,GGAGTCACGTGAATGG,0.25 kcal/mol
14,TCTGTCACGTGAGTAG,0.27 kcal/mol
15,TAATACACGTGGAGGA,0.01 kcal/mol
16,TGGGGCACGTGGCGAA,-0.24 kcal/mol
17,TGCGGCACGTGGTACT,-0.2 kcal/mol
18,AGGTCCACGTGTTATG,0.04 kcal/mol
19,TGTGTCACGTGGTCTG,0.16 kcal/mol
20,TGGAACACGTGGAAGT,0.11 kcal/mol
21,TATTCCACGTGGTATG,-0.06 kcal/mol
